Results taken from the supplement of paper PMC3334620.
Whole data set: some 33,000 sequences, median “E-score (-0.5 to 0.5)” near -0.041, cut for the highest 2% near 0.37. Some of the results follow.

target: T1, Ecm22 (UniProt Q05958); experiment: PBM E-score (8-mer binding enrichment) (E-score (-0.5 to 0.5)); higher = stronger / more preferred TF binding; most listed sequences are background and not binding sites; details: protein concentration: 200 nM; construct: GST-full length
T1 sequence: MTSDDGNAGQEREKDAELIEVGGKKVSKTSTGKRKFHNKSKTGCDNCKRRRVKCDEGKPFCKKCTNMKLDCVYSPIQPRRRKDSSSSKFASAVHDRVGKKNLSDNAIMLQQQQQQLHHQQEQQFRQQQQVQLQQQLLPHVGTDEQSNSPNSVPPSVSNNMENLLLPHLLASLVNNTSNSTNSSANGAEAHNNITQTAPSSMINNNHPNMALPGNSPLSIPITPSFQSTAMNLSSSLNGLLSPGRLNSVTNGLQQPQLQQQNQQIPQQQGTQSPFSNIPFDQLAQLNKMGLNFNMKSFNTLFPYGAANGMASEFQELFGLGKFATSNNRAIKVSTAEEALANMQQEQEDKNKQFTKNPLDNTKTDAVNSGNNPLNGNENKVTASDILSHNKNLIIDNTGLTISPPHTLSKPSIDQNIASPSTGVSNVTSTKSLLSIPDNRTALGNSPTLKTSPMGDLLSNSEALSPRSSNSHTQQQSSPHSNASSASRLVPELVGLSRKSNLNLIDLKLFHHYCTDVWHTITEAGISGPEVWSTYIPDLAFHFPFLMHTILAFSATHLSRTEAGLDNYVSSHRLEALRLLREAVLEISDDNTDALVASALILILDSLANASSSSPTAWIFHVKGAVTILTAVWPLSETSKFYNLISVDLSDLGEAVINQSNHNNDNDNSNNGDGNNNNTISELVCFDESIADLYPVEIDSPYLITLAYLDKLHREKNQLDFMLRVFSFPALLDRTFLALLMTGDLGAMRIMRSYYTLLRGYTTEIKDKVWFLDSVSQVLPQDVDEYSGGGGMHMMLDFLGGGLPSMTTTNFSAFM
How it was run: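 Bound GST-tagged yeast transcription factors, applied at about 100-200 nM to double-stranded universal all-10-mer Agilent arrays, were detected with fluorescent anti-GST. Scans were normalised with masliner. A modified Wilcoxon-Mann-Whitney statistic, the E-score, was assigned to each ungapped eight-base word pooled with its reverse complement by the Universal PBM Analysis Suite.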

Sequence	PBM E-score
CAAATCCA	-0.131
CGCCACCG	0.0614
CCCGCAAA	0.148
TACCTAGA	-0.0531
AAACAAAA	0.021
ACAAAAAA	-0.0405
AACTAGGG	-0.221
CACTGTCA	-0.0998
CTCGCCTA	0.138
CGCGAGAA	0.119
CAGGAAAA	-0.019
CCGTATGC	0.268
CAGAAGGA	-0.338
GTCCATGA	-0.343
GCGCGACC	0.173
AACCTAAG	-0.172
TTCTTAAA	-0.107
CAGTTAAA	0.186
AGCCCTCG	0.118
AACAGATG	-0.183
GGAAATCC	-0.00159
GACGACGA	0.0563
AAAAACCA	0.0285
GCGATAAC	0.106
CATGTGAG	-0.258

Sequence	PBM E-score
ATACGTCG	0.286
CGACCATA	0.164
AGCCCGCT	-0.196
TACAAATA	0.0504
AAAGACAT	-0.243
AGGGGCAT	-0.116
AAAGTTAC	-0.014
CATTTGTA	-0.0327
CGGACCAC	0.136
AGACTGAG	-0.159
GGTATTAA	-0.00603
ACGGACTG	0.0978
CGCCTGCA	-0.292
CGAACTAA	0.122
ATTGAGTG	-0.0582
GATCAGGC	-0.0698
AGTCTAGA	-0.316
TCCAAGGA	-0.0814
GATCGACA	0.0362
CGTGCTAA	-0.112
CCATTTGA	-0.251
ACCCTCCC	-0.142
GTCGCAGA	0.123
AATCTTGT	-0.0453
TACTCCAA	-0.0514

Sequence	PBM E-score
TCTTCGCA	0.191
CTTCAGTC	-0.198
AACGAAGG	0.398
ACGTCAAC	0.0318
ACAGCTCC	-0.133
GATGTTCC	-0.0613
AAATGTAG	-0.144
TACAATCA	0.0252
AAGAGATA	0.119
ATTCGTAC	0.468
GAGCACTA	0.0512
ATCGCAAA	0.11
AGCGTTGG	-0.211
GCTGCCCA	-0.194
AAGATGGA	-0.204
GCTAATCA	0.0219
ATTCGCTC	0.236
CGAAGTCA	0.0792
TATTGCCA	-0.0639
GCGCTGGA	-0.201
GATCACGA	0.0215
CCCTACGG	-0.215
CGCGTAGC	0.214
GACACTAC	0.0531
CTAGAATA	0.139

Sequence	PBM E-score
ATACTCGC	0.282
GGGCTCAA	-0.08
GGATCCAC	-0.0356
GATGCCGC	-0.0812
CAGAGGTA	0.00443
GGCGTAGA	0.0225
CGAGCTCG	0.334
CTAACACC	-0.0983
AATTCGCA	0.123
ACTAGCGA	0.216
AAACGGCA	0.294
ATACATCA	0.0752
GTCTTCAA	-0.182
CCTTCAGC	-0.176
CAGACATA	-0.00071
CCGCGGAG	0.0769
AACTTTGG	0.0216
ATGTTGAG	-0.189
ACCACATC	0.0344
GCAATTCC	-0.0476
CCAAATCG	0.0302
CCTCAGAC	-0.0702
ACAATACC	-0.0761
GGGGTACA	-0.275
AACAGGTG	-0.0793

Sequence	PBM E-score
GCACCCCC	-0.0746
ACCGTGAT	-0.0954
ACCTGACG	-0.179
ACCGGGTG	-0.0946
TGGTCACA	0.0168
GGGGAACC	-0.105
AGCAACCT	-0.109
CTGACCAA	0.0122
AGCAGTAC	-0.0397
ACCACGTC	-0.207
CTCTCGTA	0.457
AGCCCCGC	0.0155
GATGCCCC	-0.223
AAGTGGCA	-0.177
GATTAGCA	-0.0762
CTGCCTCA	-0.257
TCGCAACA	0.0491
ATTGACCA	0.0863
CGCTAATA	0.1
GTTAAACA	0.00429
GCAATGGA	-0.101
ACTACCGG	-0.151
AAACAAGT	-0.166
CTGGGGCC	-0.264
AACCACCA	-0.122

Sequence	PBM E-score
AACGCTTC	0.0846
ACCGCGGG	0.0921
CTAAAGAA	-0.0968
AGCCGCAT	0.0755
ACATACTA	0.123
CTCTAGAC	-0.179
ATGAAAAG	-0.252
CACCATTA	0.043
ACTGCTTA	-0.168
CATCTCGG	0.137
ATATGACG	0.0667
AAATCGTC	0.127
ACCACAGA	-0.0159
AGAGCCAG	-0.273
ACGACAAC	0.366
AGCGCTTA	0.105
ATGTGAAC	-0.114
TAAATTAA	0.108
ATTGCACC	-0.233
CCTTGATA	0.0127
ATATTAAT	0.189
GGCGCTTA	-0.169
ATCTAGCA	-0.13
ATATCTGC	-0.0258
ACGATAAA	0.25

Sequence	PBM E-score
ACGTCCCT	-0.147
AAAGTAGG	-0.0199
AGAGGCTG	-0.33
GCCTTGGA	-0.2
AACTCTCT	-0.192
ACATGTAA	0.00082
GTTGACTA	-0.0796
ACTGCCCG	-0.0123
TAGGCCCA	-0.296
CTCAAACA	0.0429
CGGCCGGA	-0.113
TCTAACCA	-0.0569
CCTACAGC	-0.318
AAACATTA	-0.0972
CCCACAGG	-0.125
CCGCTTAG	0.00496
TGAGGACA	0.0147
AAGCACGG	0.0886
AAGTCAAA	-0.0621
GCTCGCAC	0.292
CCCTTGTA	-0.0979
GTGATTTA	-0.0466
